Test results as given in the supplement of paper PMC4723716.
± gives the uncertainty stated by the source. Over roughly 9,900 compounds, “viability index relative to DMSO control” has its median near 1; the lowest 2% begin near 0.85. The list shows a part of the results.

The molecules below were run on Plasmodium falciparum NF54 stage V gametocytes (assay: viability index relative to DMSO control (fraction); higher = less gametocyte killing). Conditions: 2.5 µM, library set: Broad Institute DOS, incubation time: 72 h.
Procedure, shortened: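 In 1,536-well plates, 10 µl of serum-free medium holding P. falciparum NF54 stage V gametocytes (0.75% gametocytemia, 1.25% hematocrit) received compound at 2.5 µM for 72 hr at 37°C in low oxygen. After one to two hours with 3 µl of 2.5 µM MitoTracker Red CMXRos containing 0.13% saponin, red particles of 20–70 µm2 were counted in a single field per well. Viability index is reported as the particle count over the plate mean of wells treated with solvent only.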

Structure (SMILES)	viability index
COc1cccc(S(=O)(=O)N2[C@@H]3CNC[C@H]2[C@H]3c2ccc(/C=C/c3ccccc3)cc2)c1	1.07 ± 0.047
CN1CCN(C(=O)C[C@@H]2CC[C@@H]3[C@H](COC[C@H](O)CN3C(=O)c3ccccc3F)O2)CC1	1.12 ± 0.044
CNC[C@@H]1OCCCC[C@H](C)Oc2ccc(NC(=O)Nc3ccc(OC)cc3)cc2C(=O)N([C@@H](C)CO)C[C@@H]1C	1.04 ± 0.1
CN(C)C(=O)C[C@H]1C[C@H]2c3cc(NC(=O)c4cccnc4)ccc3O[C@H]2[C@@H](CO)O1	1.0792 ± 7.3e-05
C[C@H]1CN([C@@H](C)CO)C(=O)CCCn2nncc2CO[C@@H]1CN(C)Cc1ccc(C(=O)Nc2ccccc2N)cc1	1.01 ± 0.052
COc1ccc(NC(=O)N2C[C@@H](O)COC[C@H]3O[C@@H](CC(=O)N4CCCCC4)CC[C@@H]32)cc1	0.989 ± 0.018
CCC(=O)N1C[C@@H](C)[C@@H](OC)CN(C)C(=O)c2ccc(NC(=O)CC(F)(F)F)cc2OC[C@H]1C	1.02 ± 0.08
N#C[C@H]1[C@@H](c2ccc(C3=CCCCC3)cc2)[C@@H](CO)N1S(=O)(=O)c1ccccc1	1.07 ± 0.03
Cc1noc(C)c1NC(=O)N(C)C[C@H]1OCc2cnnn2CCCC(=O)N([C@H](C)CO)C[C@H]1C	1.028 ± 0.003
C[C@@H]1CN([C@@H](C)CO)C(=O)CCCn2cc(nn2)CO[C@H]1CN(C)C(=O)Nc1cccc(C(F)(F)F)c1	0.9906 ± 0.0042
CN1CCN(C(=O)C[C@H]2C[C@H]3c4cc(NS(C)(=O)=O)ccc4O[C@H]3[C@@H](CO)O2)CC1	1.1 ± 0.042
O=C1NCCOCn2nncc2CC[C@@H]1Cc1cccc(Cl)c1	1.06 ± 0.078
C[C@H](NC(=O)C[C@@H]1CC[C@@H]2[C@H](COC[C@H](O)CN2Cc2ccc(C(F)(F)F)cc2)O1)c1ccccc1	1.08 ± 0.021
CC(C)NC(=O)N1[C@H](CO)[C@@H](c2ccccc2)C12CN(Cc1cc(F)cc(F)c1)C2	1.04 ± 0.063
O=C(CN1CCOCC1)N1CCCCN2[C@@H](CO)[C@H](c3ccc(Br)cc3)[C@@H]2C1	1.03 ± 0.057
C[C@@H]1CN([C@H](C)CO)C(=O)c2ccccc2-c2ccccc2CO[C@H]1CN(C)C(=O)NC1CCCCC1	0.9899 ± 0.0044
CC(C)[C@@H]1C/C=C/C[C@@H](C)Oc2ccccc2C(=O)N(C)[C@H](Cc2ccccc2)C(=O)N1.CC(C)[C@@H]1C/C=C\C[C@@H](C)Oc2ccccc2C(=O)N(C)[C@H](Cc2ccccc2)C(=O)N1	0.945 ± 0.053
C[C@@H]1CCCCO[C@H](CN(C)S(=O)(=O)c2ccc(F)cc2)[C@@H](C)CN([C@H](C)CO)C(=O)c2cc(N(C)C)ccc2O1	1.11 ± 0.12
O=C([C@H]1[C@H](CO)[C@H]2Cn3c(ccc(C4=CCCCC4)c3=O)[C@@H]1N2)N1CCC(Cc2ccccc2)CC1	1.08 ± 0.06
CN1C(=O)c2cc(NC(=O)Cc3cccs3)ccc2OC[C@@H]2O[C@@H](CC(=O)NCCCN3CCOCC3)CC[C@H]21	1.08 ± 0.023
O=S(=O)(c1ccccc1F)N1CC[C@H]2[C@H](CO)Nc3ccc(C4=CCCCC4)cc3[C@H]21	1.02 ± 0.084
O=C(C[C@H]1C[C@H]2c3cc(NC(=O)C4CCOCC4)ccc3O[C@H]2[C@H](CO)O1)NCc1cccnc1	1.086 ± 0.0019
CN1C(=O)c2cc(NC(=O)Nc3ccccc3Cl)ccc2OC[C@@H]2O[C@@H](CC(=O)NCCCN3CCOCC3)CC[C@@H]21	1.16 ± 0.13

Structure (SMILES)	viability index
O=C(NCC[C@@H]1CC[C@H](NC(=O)c2ccccc2F)[C@H](CO)O1)c1cnccn1	0.934 ± 0.11
CNC(=O)C[C@@H]1CC[C@H]2[C@@H](COC[C@H](O)CN2Cc2ccccc2F)O1	1.09 ± 0.044
COCC(=O)N(C[C@@H]1[C@@H](c2ccccc2)[C@@H](CO)N1C(=O)NC(C)C)C(C)C	0.965 ± 0.022
CCCNC(=O)N1C[C@@H]2[C@H](c3ccccc31)[C@H](CO)N2C(=O)CN1CCOCC1	1.08 ± 0.081
CC(C)C[C@H]1COCc2cn(nn2)CC[C@@H](C)C(=O)N1	1.08 ± 0.018
COc1ccc2c3c([nH]c2c1)[C@H](CO)N(C[C@]31CN(C1)C(=O)c1cccnc1)C(=O)CN(C)C	0.992 ± 0.042
C/C=C/c1ccc([C@H]2[C@H]3CNC[C@@H]2N3S(=O)(=O)Cc2ccccc2)cc1	1.06 ± 0.047
COc1ccc(CN(C)C[C@H]2OCc3cnnn3CCCC(=O)N([C@H](C)CO)C[C@H]2C)cc1	1.017 ± 0.0013
C[C@H]1CN([C@@H](C)CO)C(=O)c2cc(Br)cnc2O[C@H]1CN(C)Cc1ccc(Oc2ccccc2)cc1	1.005 ± 0.0062
COCCNC(=O)C[C@@H]1CC[C@H]2[C@@H](COc3ccc(NC(=O)Nc4cccc(F)c4)cc3C(=O)N2C)O1	1.08 ± 0.08
C/C=C/c1ccccc1[C@H]1[C@@H](CO)N(C(=O)NC2CCCCC2)[C@H]1C#N	1.13 ± 0.092
CCCC(=O)Nc1ccc2c(c1)OC[C@@H](C)N(C(=O)c1cccnc1)C[C@H](C)[C@H](OC)CN(C)C2=O	1.112 ± 0.009
CO[C@@H](C(=O)N(C)C[C@@H]1OCc2ccccc2-c2ccccc2C(=O)N([C@@H](C)CO)C[C@H]1C)c1ccccc1	0.981 ± 0.054
CN(C)C(=O)C[C@H]1C=C[C@@H](NC(=O)c2ccc(F)cc2)[C@H](CO)O1	1.06 ± 0.019
CCC(=O)N1[C@@H]2CN(C(=O)Nc3ccc(Cl)cc3)c3ccccc3[C@@H]2[C@@H]1CO	1.02 ± 0.017
C[C@@H](NC(=O)C[C@H]1CC[C@@H]2[C@H](COC[C@@H](O)CN2Cc2ccc(C(F)(F)F)cc2)O1)c1ccccc1	0.9941 ± 0.00089
Cc1ccc(S(=O)(=O)Nc2ccc3c(c2)C(=O)N(C)[C@@H]2CC[C@H](CC(=O)NCCc4ccncc4)O[C@H]2CO3)cc1	1.04 ± 0.026
CN1CCN(C(=O)C[C@@H]2CC[C@H]3[C@@H](COc4ccc(NC(=O)c5cccs5)cc4C(=O)N3C)O2)CC1	1.048 ± 0.0044
N#C[C@@H]1[C@H](c2ccccc2)[C@@H](CO)N1C(=O)c1ccc2c(c1)OCO2	1.11 ± 0.041
N#C[C@@H]1N[C@@H](CO)[C@@H]1c1ccc(C2=CCCC2)cc1	1.11 ± 0.038
COCC(=O)N(C)C[C@@H]1[C@@H](c2ccccc2)[C@H](CO)N1C(=O)Cc1ccncc1	1 ± 0.051
O=C(Nc1cccc(Cl)c1)N1C[C@H]2[C@@H](c3ccccc31)[C@H](CO)N2Cc1cccnc1	1.03 ± 0.07
C/C=C/c1ccc([C@@H]2[C@H](CO)N[C@H]2CNS(=O)(=O)c2ccccc2)cc1	1 ± 0.079
